± gives the standard deviation. The entries are a selection whose mix differs from that of the whole data set.
Each sequence was assayed on MIWI (PIWIL1) piRISC loaded with piRNA #1 (30 nt) (assay: pre-steady-state target cleavage rate (min^-1); MIWI and MILI are mouse PIWI proteins and EfPiwi is from a freshwater sponge; tags in brackets are library labels; higher = faster piRNA-guided slicing of the target). Details: guide: piRNA #1 5'p-UGAGGUAGUAGGUUGUAUAGUAUCCAGAGG; auxiliary factor: 500 nM mouse GTSF1.
Procedure, shortened: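 Active affinity-purified piRISC carrying one synthetic guide (1 nM) was mixed with a transcribed, DNA-blocked target RNA library […] in HEPES–potassium acetate buffer at 33 °C for 0–8 or 0–960 min, with or without 500 nM GTSF1 partner protein. Uncleaved targets were then sequenced and normalised to depth and to weakly complementary targets. Three trials were pooled, and k3 was capped at 0.0001 min^-1. A burst-and-steady-state fit was applied to obtain the pre-steady-state cleavage rate.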
In the case of GGAGACGAUACUAUACAACCUACAUGCUCA, the “pre-steady-state target cleavage rate” value is reported as 0.166 ± 0.03.
GGAGUGGAUACUAUACAACCUACUACCUA was tested, and the “pre-steady-state target cleavage rate” value was 0.47 ± 0.075.
For GGAGAGGAUACUAUACAUCCUACAACCUCA, the “pre-steady-state target cleavage rate” value was 0.536 ± 0.076.
GCUCUGCAUACUAUACAUCCUACUACCUCA was tested, and the “pre-steady-state target cleavage rate” value was 1.52 ± 0.087.
For GGUCUGGAUACUAUACAUCCUUCUACCUCA, the “pre-steady-state target cleavage rate” value was 0.287 ± 0.02.
For GGAGACCAUACUUUACAACCUACAACCUCA, the “pre-steady-state target cleavage rate” value was 0.548 ± 0.065.
For GCUCUGGAUACUUACAACCUACUACCUCA, the “pre-steady-state target cleavage rate” value was 1.18 ± 0.1.
With GGACUGGAUACUAUUCAACCUACUACCUGA the “pre-steady-state target cleavage rate” value was 0.49 ± 0.099.
For GCUCUGGAUACUAUAGAUCCUACUACCUCA, the “pre-steady-state target cleavage rate” value was 0.843 ± 0.058.
GGAGACCUAACUAUUCAACCUUCUACCUCA was tested, and the “pre-steady-state target cleavage rate” value was 0.0695 ± 0.011.
GGAGACCAUACUAUAAAACCUACUACCUCA was tested, and the “pre-steady-state target cleavage rate” value was 1.3 ± 0.082.
GGUUCUGGAUACUAUACAACCUACUACCUCA was tested, and the “pre-steady-state target cleavage rate” value was 1.9 ± 0.088.
For CCUCUGGUUACUAUACAACCAACUACCUCA, the “pre-steady-state target cleavage rate” value was 0.171 ± 0.017.
For GGAGACCAUACAAUACAACCUACAACCUCA, the “pre-steady-state target cleavage rate” value was 0.309 ± 0.062.
For GGAGACCUAACUAUACAACCUACUAUCUCA, the “pre-steady-state target cleavage rate” value was 0.393 ± 0.052.
In the case of GGAGACCUAUGAUAUGUUGGUACUACCCUCA, the “pre-steady-state target cleavage rate” value is reported as under 0.0001.
GGUCUGGAUACUAAACAACCUACUAGCUCA was tested, and the “pre-steady-state target cleavage rate” value was 0.198 ± 0.03.
For GGAGAGGAAACUAUACAACCUACUACGUCA, the “pre-steady-state target cleavage rate” value was 0.371 ± 0.033.
CCUCUGGAUACUAUACAAGCUACUACCUGA was tested, and the “pre-steady-state target cleavage rate” value was 0.645 ± 0.049.
For GGUCUGGAUACUAAACAACCUACUACCUCA, the “pre-steady-state target cleavage rate” value was 1.81 ± 0.11.
CCACUGGAUACUAAACAACCUACUACCUCA was tested, and the “pre-steady-state target cleavage rate” value was 1.86 ± 0.11.
GGACUGCAUACUAUACUACCUACUACCUCA was tested, and the “pre-steady-state target cleavage rate” value was 1.05 ± 0.12.
With CCUCUGGAUACUAUACAACCUACAAGCUCA the “pre-steady-state target cleavage rate” value was 0.925 ± 0.11.
With “CCUCUGGAUACUAUACAACCUACUUGGAGA [g7:g30:cont:t1A]” the “pre-steady-state target cleavage rate” value was 0.105 ± 0.026.
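Also: 1 nM active piRISC with 0.1 nM target library at 33 °C single turnover.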
